# The whole screen tested about 350,000 compounds, of which about 7,000 (2%) were called active. This list was built around the results that the source calls inconclusive (neither active nor inactive); the mix of calls is not that of the screen. Rule as the data show it: active = activation above about 40%; inconclusive = no clear call, values can overlap the other calls; inactive = below that.
# Experiment: raisers of Bmi1 knock-in reporter signal – mouse ES cells, Bmi1 luciferase knock-in, single point, esBAF inhibitor project, primary screen (AID 602393);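 also: 0% = median of the plate's neutral control wells and 100% = double that signal; a rise in the Bmi1 reporter signal indicates esBAF inhibition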
# Conditions: 24 h, at 12.5 µM, stronger effect = higher value, 100% = twice the neutral-well signal
row,Compound,reporter increase
1,CC(C)NC(=O)N1CC[C@@H]2[C@H]1c1cc(C#Cc3cccnc3)ccc1N(C)[C@@H]2CO,inactive: -1.38%
2,O=C(c1cc2ccccc2oc1=O)N(Cc1ccc(F)cc1)C1CCS(=O)(=O)C1 (stereo not drawn),inconclusive: 36.6%
3,CC(C)c1ccc(C2(C)NC(=O)N(CC(=O)N3CCN(C(=O)c4cccs4)CC3)C2=O)cc1 (stereo not drawn),inactive: 1.12%
4,CN(C)/C=N/c1nc2ccc3c(c2s1)CCCC3,inconclusive: 42.9%
5,COc1ccc(C(=O)Nc2ccc(C)cn2)c(OC)c1,inactive: -78.3%
6,Cc1c(/C=C/C(=O)c2ccc(Cl)s2)cnn1C,inconclusive: 40.1%
7,Fc1ccc(-c2nc3ccc(Cl)cn3c2Cc2ccsc2)cc1,inconclusive: 43.6%
8,C[C@H]1CN([C@@H](C)CO)S(=O)(=O)c2ccc(-c3ccc(C#N)cc3)cc2O[C@H]1CN(C)Cc1ccccn1,inactive: -2.73%
9,C[C@@H]1CCCCO[C@H](CN(C)S(=O)(=O)c2ccccc2)[C@@H](C)CN([C@H](C)CO)C(=O)c2cc(NC(=O)CCC(F)(F)F)ccc2O1,inactive: -2.63%
10,Cc1nn2c(-c3ccc(Cl)cc3)ccnc2c1-c1ccccc1,active: 57%
11,CCOc1ccc(-c2cc(C(=O)N3CCN(c4ccccn4)CC3)c3ccccc3n2)cc1,inconclusive: 40.8%
12,COc1ccccc1CC(=O)Nc1ccc2c(c1)OC1(CCCC1)O2,active: 51.8%
13,CCOC(=O)Nc1sc2c(c1C#N)CCC(C)C2 (stereo not drawn),inconclusive: 40.1%
14,CC(=O)Nc1ccc(C=C(C#N)c2ccc(C)cc2)cc1,inconclusive: 41.6%
15,COc1ccccc1N1CCN(/N=C/c2ccc(C(=O)O)cc2)CC1,inconclusive: 40.7%
16,CC(C)(C)c1ccc(NC(=O)NCc2ccco2)cc1,inconclusive: 65.5%
17,O=C(C[C@@H]1C=C[C@H](NC(=O)Nc2ccc(C(F)(F)F)cc2)[C@H](CO)O1)NCc1ccccn1,inactive: 2.66%
18,CC(=O)c1ccc(S(=O)(=O)N2CCCC2)cc1,inconclusive: 46.4%
19,COc1ccccc1OCCCn1c(=O)sc2ccccc21,inconclusive: 44.4%
20,O=[N+]([O-])c1cccnc1NCCc1c[nH]c2ccccc12,inconclusive: 46.7%
21,CNC(=O)c1ccc(-c2cc3onc(-c4ccccc4)c3c(=O)n2C)cc1,active: 81.2%
22,C[C@H]1CN([C@@H](C)CO)C(=O)CCCn2nncc2CO[C@@H]1CN(C)C(=O)Nc1cccc(Oc2ccccn2)c1,inactive: 2.86%
23,CCOC(=O)C1CCCN(C(=S)Nc2ccc(Nc3ccccc3)cc2)C1 (stereo not drawn),inconclusive: 45.1%

# — PubChem BioAssay AID602393 (Broad Institute, 2012)
